Measured values published in the supplement of paper PMC8728848.
The other results are listed elsewhere or left out.

Experiments:
Test in all cases: glycan array binding signal (z-score within array); higher = stronger binding
Details in all cases: glycan notation: IUPAC condensed, linker removed
Glc(b1-3)Glc = target: Glc(b1-3)Glc
How it was run: (§1)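 Glycan array data were curated from 3228 arrays in the Consortium for Functional Glycomics database and kept only where the protein sequence was available. Glycan names were converted to IUPAC-condensed notation, and columns mapping to the same glycan were averaged. The binding signal is a within-array Z-score, averaged across arrays of the same protein sequence at different concentrations or buffers and across linkers. Negative Z-scores can be read as non-binding.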

Glc(b1-3)Glc(b1-3)Glc = target: Glc(b1-3)Glc(b1-3)Glc
How it was run: as §1

[1] = target: Glc(b1-3)Glc(b1-3)Glc(b1-3)Glc
How it was run: as §1

[2] = target: Glc(b1-3)Glc(b1-3)Glc(b1-3)Glc(b1-3)Glc
How it was run: as §1

[3] = target: Glc(b1-3)Glc(b1-3)Glc(b1-3)Glc(b1-3)Glc(b1-3)Glc
How it was run: as §1

[4] = target: Glc(b1-3)Glc(b1-3)Glc(b1-3)Glc(b1-3)Glc(b1-3)Glc(b1-3)Glc
How it was run: as §1

[5] = target: Glc(b1-3)Glc(b1-3)Glc(b1-3)Glc(b1-3)Glc(b1-3)Glc(b1-3)Glc(b1-3)Glc
How it was run: as §1

[6] = target: Glc(b1-3)Glc(b1-3)Glc(b1-3)Glc(b1-3)Glc(b1-3)Glc(b1-3)Glc(b1-3)Glc(b1-3)Glc
How it was run: as §1

[7] = target: Glc(b1-3)Glc(b1-3)Glc(b1-3)Glc(b1-3)Glc(b1-3)Glc(b1-3)Glc(b1-3)Glc(b1-3)Glc(b1-3)Glc
How it was run: as §1

[8] = target: Glc(b1-3)Glc(b1-3)Glc(b1-3)Glc(b1-3)Glc(b1-3)Glc(b1-3)Glc(b1-3)Glc(b1-3)Glc(b1-3)Glc(b1-3)Glc
How it was run: as §1

[9] = target: Glc(b1-3)Glc(b1-3)Glc(b1-3)Glc(b1-3)Glc(b1-3)Glc(b1-3)Glc(b1-3)Glc(b1-3)Glc(b1-3)Glc(b1-3)Glc(b1-3)Glc
How it was run: as §1

[10] = target: Glc(b1-3)Glc(b1-3)Glc(b1-3)Glc(b1-3)Glc(b1-3)Glc(b1-3)Glc(b1-3)Glc(b1-3)Glc(b1-3)Glc(b1-3)Glc(b1-3)Glc(b1-3)Glc
How it was run: as §1

[11] = target: Glc(b1-3)Glc(b1-3)Glc(b1-3)Glc(b1-3)Glc(b1-3)Glc(b1-3)Glc(b1-3)[Glc(b1-6)]Glc(b1-3)Glc
How it was run: as §1

[12] = target: Glc(b1-3)Glc(b1-3)Glc(b1-3)Glc(b1-3)Glc(b1-3)Glc(b1-3)[Glc(b1-6)]Glc(b1-3)Glc(b1-3)Glc
How it was run: as §1

[13] = target: Glc(b1-3)Glc(b1-3)Glc(b1-3)Glc(b1-3)[Glc(b1-6)]Glc(b1-3)Glc(b1-3)Glc(b1-3)Glc(b1-3)Glc
How it was run: as §1

[14] = target: Glc(b1-3)Glc(b1-3)Glc(b1-3)[Glc(b1-6)]Glc(b1-3)Glc(b1-3)Glc(b1-3)Glc(b1-3)[Glc(b1-6)]Glc(b1-3)Glc
How it was run: as §1

[15] = target: Glc(b1-3)Glc(b1-3)[Glc(b1-6)]Glc(b1-3)Glc(b1-3)Glc(b1-3)Glc(b1-3)Glc(b1-3)Glc(b1-3)Glc
How it was run: as §1

Glc(b1-3)Glc(b1-4)Glc = target: Glc(b1-3)Glc(b1-4)Glc
How it was run: as §1

[16] = target: Glc(b1-3)Glc(b1-4)Glc(b1-4)Glc
How it was run: as §1

[17] = target: Glc(b1-3)Glc(b1-4)Glc(b1-6)Glc(b1-4)Glc
How it was run: as §1

[18] = target: Glc(b1-3)[Glc(b1-6)]Glc(a1-3)Glc(b1-3)[Glc(b1-6)]Glc
How it was run: as §1

[19] = target: Glc(b1-3)[Glc(b1-6)]Glc(b1-3)Glc(b1-3)Glc(b1-3)Glc(b1-3)Glc(b1-3)Glc(b1-3)Glc
How it was run: as §1

Glc(b1-4)Glc = target: Glc(b1-4)Glc
How it was run: as §1

Glc(b1-4)Glc(b1-3)Glc = target: Glc(b1-4)Glc(b1-3)Glc
How it was run: as §1

[20] = target: Glc(b1-4)Glc(b1-3)Glc(b1-4)Glc
How it was run: as §1

Glc(b1-4)Glc(b1-4)Glc = target: Glc(b1-4)Glc(b1-4)Glc
How it was run: as §1

[21] = target: Glc(b1-4)Glc(b1-4)Glc(b1-3)Glc
How it was run: as §1

[22] = target: Glc(b1-4)Glc(b1-4)Glc(b1-3)Glc(b1-4)Glc(b1-4)Glc(b1-3)Glc
How it was run: as §1

[23] = target: Glc(b1-4)Glc(b1-4)Glc(b1-4)Glc
How it was run: as §1

[24] = target: Glc(b1-4)Glc(b1-4)Glc(b1-4)Glc(b1-3)Glc
How it was run: as §1

[25] = target: Glc(b1-4)Glc(b1-4)Glc(b1-4)Glc(b1-4)Glc
How it was run: as §1

[26] = target: Glc(b1-4)Glc(b1-4)Glc(b1-4)Glc(b1-4)Glc(b1-4)Glc
How it was run: as §1

[27] = target: Glc(b1-4)Glc(b1-4)Glc(b1-4)Glc(b1-4)Glc(b1-4)Glc(b1-4)Glc
How it was run: as §1

[28] = target: Glc(b1-4)Glc(b1-4)Glc(b1-4)Glc(b1-4)Glc(b1-4)Glc(b1-4)Glc(b1-4)Glc
How it was run: as §1

[29] = target: Glc(b1-4)Glc(b1-4)Glc(b1-4)Glc(b1-4)Glc(b1-4)Glc(b1-4)Glc(b1-4)Glc(b1-4)Glc
How it was run: as §1

[30] = target: Glc(b1-4)Glc(b1-4)Glc(b1-4)Glc(b1-4)Glc(b1-4)Glc(b1-4)Glc(b1-4)Glc(b1-4)Glc(b1-4)Glc
How it was run: as §1

[31] = target: Glc(b1-4)Glc(b1-4)Glc(b1-4)Glc(b1-4)Glc(b1-4)Glc(b1-4)Glc(b1-4)Glc(b1-4)Glc(b1-4)Glc(b1-4)Glc
How it was run: as §1

[32] = target: Glc(b1-4)Glc(b1-4)Glc(b1-4)Glc(b1-4)Glc(b1-4)Glc(b1-4)Glc(b1-4)Glc(b1-4)Glc(b1-4)Glc(b1-4)Glc(b1-4)Glc
How it was run: as §1

[33] = target: Glc(b1-4)Glc(b1-4)Glc(b1-4)Glc(b1-4)Glc(b1-4)Glc(b1-4)Glc(b1-4)Glc(b1-4)Glc(b1-4)Glc(b1-4)Glc(b1-4)Glc(b1-4)Glc
How it was run: as §1

Glc(b1-6)Glc = target: Glc(b1-6)Glc
How it was run: as §1

Glc(b1-6)Glc(b1-6)Glc = target: Glc(b1-6)Glc(b1-6)Glc
How it was run: as §1

[34] = target: Glc(b1-6)Glc(b1-6)Glc(b1-6)Glc
How it was run: as §1

[35] = target: Glc(b1-6)Glc(b1-6)Glc(b1-6)Glc(b1-6)Glc
How it was run: as §1

[36] = target: Glc(b1-6)Glc(b1-6)Glc(b1-6)Glc(b1-6)Glc(b1-6)Glc
How it was run: as §1

[37] = target: Glc(b1-6)Glc(b1-6)Glc(b1-6)Glc(b1-6)Glc(b1-6)Glc(b1-6)Glc
How it was run: as §1

[38] = target: Glc(b1-6)Glc(b1-6)Glc(b1-6)Glc(b1-6)Glc(b1-6)Glc(b1-6)Glc(b1-6)Glc
How it was run: as §1

[39] = target: Glc(b1-6)Glc(b1-6)Glc(b1-6)Glc(b1-6)Glc(b1-6)Glc(b1-6)Glc(b1-6)Glc(b1-6)Glc
How it was run: as §1

[40] = target: Glc(b1-6)Glc(b1-6)Glc(b1-6)Glc(b1-6)Glc(b1-6)Glc(b1-6)Glc(b1-6)Glc(b1-6)Glc(b1-6)Glc
How it was run: as §1

[41] = target: Glc(b1-6)Glc(b1-6)Glc(b1-6)Glc(b1-6)Glc(b1-6)Glc(b1-6)Glc(b1-6)Glc(b1-6)Glc(b1-6)Glc(b1-6)Glc
How it was run: as §1

[42] = target: Glc(b1-6)Glc(b1-6)Glc(b1-6)Glc(b1-6)Glc(b1-6)Glc(b1-6)Glc(b1-6)Glc(b1-6)Glc(b1-6)Glc(b1-6)Glc(b1-6)Glc
How it was run: as §1

[43] = target: Glc(b1-6)Glc(b1-6)Glc(b1-6)Glc(b1-6)Glc(b1-6)Glc(b1-6)Glc(b1-6)Glc(b1-6)Glc(b1-6)Glc(b1-6)Glc(b1-6)Glc(b1-6)Glc
How it was run: as §1

[44] = target: Man(b1-4)Man(b1-4)Man(b1-4)Man
How it was run: as §1

[45] = target: Man(b1-4)Man(b1-4)Man(b1-4)Man(b1-4)Man
How it was run: as §1

[46] = target: Man(b1-4)Man(b1-4)Man(b1-4)Man(b1-4)Man(b1-4)Man
How it was run: as §1

[47] = target: Xyl(b1-4)Xyl(b1-4)Xyl(b1-4)Xyl(b1-4)Xyl
How it was run: as §1

[48] = target: Xyl(b1-4)Xyl(b1-4)Xyl(b1-4)Xyl(b1-4)Xyl(b1-4)Xyl
How it was run: as §1

B1: Lam16A (Thermotoga maritima), Q9WXN1 (protein)
chain: EQINNGTFDEPIVNDQANNPDEWFIWQAGDYGISGARVSDYGVRDGYAYITIADPGTDTWHIQFNQWIGLYRGKTYTISFKAKADTPRPINVKILQNHDPWTNYFAQTVNLTADWQTFTFTYTHPDDADEVVQISFELGEGTATTIYFDDVTVSPQ
glycan array binding signal (z-score) (Glc(b1-3)Glc): -0.373
glycan array binding signal (z-score) (Glc(b1-3)Glc(b1-3)Glc): -0.359
glycan array binding signal (z-score) [1]: 0.527
glycan array binding signal (z-score) [2]: 1.45
glycan array binding signal (z-score) [3]: 1.79
glycan array binding signal (z-score) [4]: 1.73
glycan array binding signal (z-score) [5]: 2.94
glycan array binding signal (z-score) [6]: 2.58
glycan array binding signal (z-score) [7]: 2.77
glycan array binding signal (z-score) [8]: 3.64
glycan array binding signal (z-score) [9]: 4.46
glycan array binding signal (z-score) [10]: 4.88
glycan array binding signal (z-score) [11]: 2.11
glycan array binding signal (z-score) [12]: 1.28
glycan array binding signal (z-score) [13]: 1.41
glycan array binding signal (z-score) [14]: 1.26
glycan array binding signal (z-score) [15]: 2.49
glycan array binding signal (z-score) (Glc(b1-3)Glc(b1-4)Glc): -0.373
glycan array binding signal (z-score) [16]: -0.358
glycan array binding signal (z-score) [17]: -0.308
glycan array binding signal (z-score) [18]: -0.373
glycan array binding signal (z-score) [19]: 0.667
glycan array binding signal (z-score) (Glc(b1-4)Glc): -0.373
glycan array binding signal (z-score) (Glc(b1-4)Glc(b1-3)Glc): -0.373
glycan array binding signal (z-score) [20]: -0.373
glycan array binding signal (z-score) (Glc(b1-4)Glc(b1-4)Glc): -0.373
glycan array binding signal (z-score) [21]: -0.373
glycan array binding signal (z-score) [22]: -0.301
glycan array binding signal (z-score) [23]: -0.373
glycan array binding signal (z-score) [24]: -0.373
glycan array binding signal (z-score) [25]: -0.373
glycan array binding signal (z-score) [26]: -0.373
glycan array binding signal (z-score) [27]: -0.373
glycan array binding signal (z-score) [28]: -0.373
glycan array binding signal (z-score) [29]: -0.373
glycan array binding signal (z-score) [30]: -0.373
glycan array binding signal (z-score) [31]: -0.373
glycan array binding signal (z-score) [32]: -0.365
glycan array binding signal (z-score) [33]: -0.373
glycan array binding signal (z-score) (Glc(b1-6)Glc): -0.373
glycan array binding signal (z-score) (Glc(b1-6)Glc(b1-6)Glc): -0.373
glycan array binding signal (z-score) [34]: -0.373
glycan array binding signal (z-score) [35]: -0.373
glycan array binding signal (z-score) [36]: -0.373
glycan array binding signal (z-score) [37]: -0.373
glycan array binding signal (z-score) [38]: -0.373
glycan array binding signal (z-score) [39]: -0.373
glycan array binding signal (z-score) [40]: -0.373
glycan array binding signal (z-score) [41]: -0.373
glycan array binding signal (z-score) [42]: -0.373
glycan array binding signal (z-score) [43]: -0.373
glycan array binding signal (z-score) [44]: -0.373
glycan array binding signal (z-score) [45]: -0.373
glycan array binding signal (z-score) [46]: -0.373
glycan array binding signal (z-score) [47]: -0.373
glycan array binding signal (z-score) [48]: -0.373
